According to the supplement of paper PMC4967469:

How the values were obtained:
Experiment in all cases: Viability of human cancer cell lines after 72 h of drug (GDSC screen)
Paclitaxel = compound: CC(=O)O[C@H]1C(=O)[C@@]2(C)[C@H]([C@H](OC(=O)c3ccccc3)[C@]3(O)C[C@H](OC(=O)[C@H](O)[C@@H](NC(=O)c4ccccc4)c4ccccc4)C(C)=C1C3(C)C)[C@]1(OC(C)=O)CO[C@@H]1C[C@@H]2O [Paclitaxel]; conditions: top dose 0.1024 µM
Experimental: (§1)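 Human cancer cell lines in 384-well plates, medium with 10% serum, drug for 72 h over a 256-fold dose range (nine 2-fold or five 4-fold steps up to the top dose). Adherent lines were fixed and stained with the nucleic acid dye Syto60, suspension lines read with resazurin; signal relative to control wells, capped at 0 and 100%. One two-parameter sigmoid per drug and line, fitted in a mixed model over all curves with the slope shared within a line.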

Bortezomib = compound: CC(C)C[C@H](NC(=O)[C@H](Cc1ccccc1)NC(=O)c1cnccn1)B(O)O [Bortezomib]; conditions: top dose 0.02 µM
Experimental: as §1

Obatoclax mesylate = compound: COC1=CC(c2cc3ccccc3[nH]2)=N/C1=C\c1[nH]c(C)cc1C [Obatoclax mesylate]; conditions: top dose 16 µM
Experimental: as §1

CP724714 = compound: COCC(=O)NC/C=C/c1ccc2ncnc(Nc3ccc(Oc4ccc(C)nc4)c(C)c3)c2c1 [CP724714]; conditions: top dose 10.24 µM; top dose inferred
Experimental: as §1

STF-62247 = compound: Cc1cccc(Nc2nc(-c3ccncc3)cs2)c1 [STF-62247]; conditions: top dose 10.24 µM; top dose inferred
Experimental: as §1

CX-5461 = compound: Cc1cnc(CNC(=O)c2c(=O)c3ccc(N4CCCN(C)CC4)nc3n3c2sc2ccccc23)cn1 [CX-5461]; conditions: top dose 10.24 µM; top dose inferred
Experimental: as §1

Cell Line	AUC (Paclitaxel)	IC50 (Paclitaxel) [nM]	AUC (Bortezomib)	IC50 (Bortezomib) [nM]	AUC (Obatoclax mesylate)	IC50 (Obatoclax mesylate) [nM]	AUC (CP724714)	IC50 (CP724714) [nM]	AUC (STF-62247)	IC50 (STF-62247) [nM]	AUC (CX-5461)	IC50 (CX-5461) [nM]
LAMA-84 (chronic myeloid leukaemia, suspension)	0.863	90.8	0.583	2.12	0.628	2270	0.981	> 10200	0.953	> 10200	0.693	2250
LAN-6 (neuroblastoma, adherent)	0.967	> 102	0.577	2.11	0.571	1620	0.927	> 10200	0.98	> 10200	0.983	> 10200
LB373-MEL-D (melanoma, adherent)	0.775	39.6	0.413	0.728	0.137	74.9	0.978	> 10200	0.982	> 10200	0.989	> 10200
LB771-HNC (head and neck, adherent)	0.69	25.1	0.344	0.412	0.259	169	0.956	> 10200	0.965	> 10200	0.957	> 10200
LB831-BLC (bladder, adherent)	0.653	17.2	0.38	0.579	0.37	436	0.986	> 10200	0.984	> 10200	0.987	> 10200
LB996-RCC (kidney, adherent)	0.794	55.8	0.645	3.38	0.385	458	0.981	> 10200	0.982	> 10200	0.979	> 10200
LB1047-RCC (kidney, adherent)	0.706	26.4	0.581	2.15	0.361	393	0.937	> 10200	0.954	> 10200	0.922	> 10200
LB2241-RCC (kidney, adherent)	0.984	> 102	0.461	0.966	0.381	451	0.984	> 10200	0.982	> 10200	0.984	> 10200
LB2518-MEL (melanoma, adherent)	0.822	64.2	0.366	0.524	0.262	201	0.969	> 10200	0.982	> 10200	0.987	> 10200
LC4-1 (lymphoblastic leukaemia, suspension)	0.729	31	0.54	1.63	0.405	533	0.977	> 10200	0.884	> 10200	0.841	8260
LC-2-ad (lung adenocarcinoma, adherent)	0.256	1.25	0.508	1.31	0.124	< 62.5	0.972	> 10200	0.933	> 10200	0.783	4410
LNCaP-Clone-FGC (prostate, adherent)	0.975	> 102	0.957	> 20	0.61	2090	0.923	> 10200	0.905	> 10200	0.846	9070
LOUCY (T-cell lymphoblastic leukaemia, suspension)	0.513	6.89	0.31	0.413	0.032	< 62.5	0.988	> 10200	0.96	> 10200	0.204	107
LS-123 (large intestine, adherent)	0.661	21	0.523	1.48	0.189	81.9	0.943	> 10200	0.978	> 10200	0.903	> 10200
LS-513 (large intestine, adherent)	0.957	> 102	0.888	> 20	0.891	> 16000	0.962	> 10200	0.986	> 10200	0.916	> 10200
LU-65 (large cell lung carcinoma, suspension)	0.809	65.5	0.731	6.48	0.35	355	0.974	> 10200	0.916	> 10200	0.895	> 10200
LU-134-A (small cell lung carcinoma, suspension)	0.786	47.3	0.664	3.69	0.832	11100	0.975	> 10200	0.936	> 10200	0.593	1170
LU-139 (small cell lung carcinoma, suspension)	0.814	76.7	0.67	4.28	0.595	1970	0.975	> 10200	0.973	> 10200	0.855	> 10200
LU-165 (small cell lung carcinoma, suspension)	0.964	> 102	0.868	> 20	0.825	11300	0.981	> 10200	0.987	> 10200	0.975	> 10200

IC50 is the fitted dose that halves viability relative to control wells, and lower means more sensitive; where the fit passes the top or lowest dose, that dose stands as a limit. The AUC spans the tested range (256-fold, ending at the top dose) of the same fit: 1 means no effect, lower means more sensitive. For part of these data: Where the top dose is marked as inferred, it comes from the curve model; the source does not state it.
